Data as given in the RNAGym collection of RNA variant scans (doi:10.1093/nar/gkz1192).
Read counts are not given, so values of variants with three or more changes are uncertain.

B1: CPEB3 Ribozyme (parent)
chain: UAACAGGGGGCCACAGCAGAAGCGUUCACGUCGCAGCCCCUGUCAGAUUCUGGUGAAUCUGCGAAUUCUGCUGUAUAUCUC

Variants of: B1
Experiment: self-cleavage, relative activity (ratio to wild type); higher = more cleavage; in vitro, sequencing
Procedure, shortened: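 After error-prone PCR and barcoding, CPEB3 ribozyme mutant libraries were transcribed with T7 RNA polymerase at 37°C for 5 hours, then given 15 min with DNase I before an EDTA stop, and they cleaved during both steps. Reverse transcription with template switching preceded Illumina sequencing. Relative activity divides a variant's cleaved/total read fraction by the unmutated ribozyme's. At least 5 reads were required per variant, and three batches were averaged.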

Variant | self-cleavage
UAACAGGGGGCCACAGCAGAAGCGUUCACGUCGCAGCCCCAGUCAGACUCUGGUGAACCUGCGGAUUCUGCUGUAUAUCUC [U41A U48C U58C A64G] | 0.05
UAACAGGGGGCCACAGCAGAAGCGUUCACGUCGCAGCCCCAGUCAGACUCUGGUGAAUCCGCGAAUUCUGCUGUAUAUCUC [U41A U48C U60C] | 0.4
UAACAGGGGGCCACAGCAGAAGCGUUCACGUCGCAGCCCCAGUCAGACUCUGGUGAAUCCGUGAAUUCUGCUGUAUAUCUC [U41A U48C U60C C62U] | 0.08
UAACAGGGGGCCACAGCAGAAGCGUUCACGUCGCAGCCCCAGUCAGAUACUGGUGAAUCUGCGAAUUCUGCCGUAUAUCUC [U41A U49A U72C] | 0.44
UAACAGGGGGCCACAGCAGAAGCGUUCACGUCGCAGCCCCAGUCAGAUCCUGGUGGAUCUGCGAAUUCUGCAGUAUAUCUC [U41A U49C A56G U72A] | 0.29
UAACAGGGGGCCACAGCAGAAGCGUUCACGUCGCAGCCCCAGUCAGAUCCUGGUGAUUCCGCGAAUUCUGCUGUAUAUCUC [U41A U49C A57U U60C] | 0.16
UAACAGGGGGCCACAGCAGAAGCGUUCACGUCGCAGCCCCAGUCAGAUCCUGGUGAAUCUGCGAAUUAUGCUGUAUAUCUC [U41A U49C C68A] | 0.16
UAACAGGGGGCCACAGCAGAAGCGUUCACGUCGCAGCCCCAGUCAGAUCCUGGUGAAUCUGCGAAUUCUGCUAUAUAUCUC [U41A U49C G73A] | 0.1
UAACAGGGGGCCACAGCAGAAGCGUUCACGUCGCAGCCCCAGUCAGAUCCAGGUGUAUUUGCGAAUUCAGCAGUAUAUCUC [U41A U49C U51A A56U C59U U69A U72A] | 0.05
UAACAGGGGGCCACAGCAGAAGCGUUCACGUCGCAGCCCCAGUCAGAUUCAGGUGAGUCUGCGAAUUCUGCUGUAUAUCUC [U41A U51A A57G] | 0.21
UAACAGGGGGCCACAGCAGAAGCGUUCACGUCGCAGCCCCAGUCAGAUUCAGGUGAAUCUGCGGAUUCUGCUGUGUAUCUC [U41A U51A A64G A75G] | 0.09
UAACAGGGGGCCACAGCAGAAGCGUUCACGUCGCAGCCCCAGUCAGAUUCAGGUGAAUCUGCGGAUUCUGCUGUAUAUCCC [U41A U51A A64G U80C] | 0.26
UAACAGGGGGCCACAGCAGAAGCGUUCACGUCGCAGCCCCAGUCAGAUUCAGGCGAAUCUGCGAAUUCUGCUGUAUAUCUC [U41A U51A U54C] | 0.36
UAACAGGGGGCCACAGCAGAAGCGUUCACGUCGCAGCCCCAGUCAGAUUCAGGUGAAUCCGCGAAUUCUGCUGUAUAUCCC [U41A U51A U60C U80C] | 0.35
UAACAGGGGGCCACAGCAGAAGCGUUCACGUCGCAGCCCCAGUCAGAUUCAGGUGAAUCUGCGAAUUCUGCAGUAUAUCUC [U41A U51A U72A] | 0.25
UAACAGGGGGCCACAGCAGAAGCGUUCACGUCGCAGCCCCAGUCAGAUUCAGGUGAAUCUGCGAAUUCUGCUGUAUAUCCC [U41A U51A U80C] | 0.16
UAACAGGGGGCCACAGCAGAAGCGUUCACGUCGCAGCCCCAGUCAGAUUCCGGUGAGUCUGCGAAUUCUGCUGUAUAUCUC [U41A U51C A57G] | 0.2

Variant | self-cleavage
UAACAGGGGGCCACAGCAGAAGCGUUCACGUCGCAGCCCCAGUCAGAUUCCGGUGAAUCUGCGAAUUCAGCUGAAUAUCUC [U41A U51C U69A U74A] | 0.09
UAACAGGGGGCCACAGCAGAAGCGUUCACGUCGCAGCCCCAGUCAGAUUCUGGAGGAUCCGCGAAUUCUGCUGUAUAUCUC [U41A U54A A56G U60C] | 0.1
UAACAGGGGGCCACAGCAGAAGCGUUCACGUCGCAGCCCCAGUCAGAUUCUGGAGAAUCUGCGAAUUCUGCAGUAUAUCUC [U41A U54A U72A] | 0.07
UAACAGGGGGCCACAGCAGAAGCGUUCACGUCGCAGCCCCAGUCAGAUUCUGGCGAAUCUGCGAGUUCUGCUGUAUAUCUC [U41A U54C A65G] | 0.22
UAACAGGGGGCCACAGCAGAAGCGUUCACGUCGCAGCCCCAGUCAGAUUCUGGCGAAUCCGCGAAUUCUGCUGUAUAUCUA [U41A U54C U60C C81A] | 0.18
UAACAGGGGGCCACAGCAGAAGCGUUCACGUCGCAGCCCCAGUCAGAUUCUGGCGAAUCUGCGAAUUCUGCUGUAAAUCUC [U41A U54C U76A] | 0.1
UAACAGGGGGCCACAGCAGAAGCGUUCACGUCGCAGCCCCAGUCAGAUUCUGGUGAAACAGCGAACUCUGCCGUAUAUCCC [U41A U58A U60A U66C U72C U80C] | 0.03
UAACAGGGGGCCACAGCAGAAGCGUUCACGUCGCAGCCCCAGUCAGAUUCUGGUGAAACUGCGAACUCUGCUGUAUAUCUC [U41A U58A U66C] | 0.44
UAACAGGGGGCCACAGCAGAAGCGUUCACGUCGCAGCCCCAGUCAGAUUCUGGUGAAACUGCGAAUACUGCUGUAUAUCUC [U41A U58A U67A] | 0.18
UAACAGGGGGCCACAGCAGAAGCGUUCACGUCGCAGCCCCAGUCAGAUUCUGGUGAAACUGCGAAUUCUGCUGUAUAUCCC [U41A U58A U80C] | 0.18
UAACAGGGGGCCACAGCAGAAGCGUUCACGUCGCAGCCCCAGUCAGAUUCUGGUGAAUCAGCGAAUCCUGCUGUAUAUCUC [U41A U60A U67C] | 0.13
UAACAGGGGGCCACAGCAGAAGCGUUCACGUCGCAGCCCCAGUCAGAUUCUGGUGAAUCCGCGAAUUCUGCUGUAUAUCUG [U41A U60C C81G] | 0.19
UAACAGGGGGCCACAGCAGAAGCGUUCACGUCGCAGCCCCAGUCAGAUUCUGGUGAAUCCGCGAAUUCUGCAGUAUAUCUC [U41A U60C U72A] | 0.16
UAACAGGGGGCCACAGCAGAAGCGUUCACGUCGCAGCCCCAGUCAGAUUCUGGUGAAUCCGCGAAUUCUGCUGUAAAUCUC [U41A U60C U76A] | 0.07
UAACAGGGGGCCACAGCAGAAGCGUUCACGUCGCAGCCCCAGUCAGAUUCUGGUGAAUCUGCGAAACCUGCUGUAUAUCCC [U41A U66A U67C U80C] | 0.09
UAACAGGGGGCCACAGCAGAAGCGUUCACGUCGCAGCCCCAGUCAGAUUCUGGUGAAUCUGCGAACUCUGCUGUACAUCUC [U41A U66C U76C] | 0.1
UAACAGGGGGCCACAGCAGAAGCGUUCACGUCGCAGCCCCAGUCAGAUUCUGGUGAAUCUGCGAAUCCUGCUGUGUAUCUC [U41A U67C A75G] | 0.21
